# About 2,200 (0.71%) of roughly 310,000 compounds showed an effect of 50% or more. The effect is printed as a negative number. Some of the results follow.
# Target: human ether-à-go-go-related gene (hERG) potassium channel (human, UniProt Q12809)
# Assay: primary screen, population patch clamp on CHO cells stably expressing hERG
# human ether-à-go-go-related gene (hERG) potassium channel, sequence (Q12809 whole entry, looked up): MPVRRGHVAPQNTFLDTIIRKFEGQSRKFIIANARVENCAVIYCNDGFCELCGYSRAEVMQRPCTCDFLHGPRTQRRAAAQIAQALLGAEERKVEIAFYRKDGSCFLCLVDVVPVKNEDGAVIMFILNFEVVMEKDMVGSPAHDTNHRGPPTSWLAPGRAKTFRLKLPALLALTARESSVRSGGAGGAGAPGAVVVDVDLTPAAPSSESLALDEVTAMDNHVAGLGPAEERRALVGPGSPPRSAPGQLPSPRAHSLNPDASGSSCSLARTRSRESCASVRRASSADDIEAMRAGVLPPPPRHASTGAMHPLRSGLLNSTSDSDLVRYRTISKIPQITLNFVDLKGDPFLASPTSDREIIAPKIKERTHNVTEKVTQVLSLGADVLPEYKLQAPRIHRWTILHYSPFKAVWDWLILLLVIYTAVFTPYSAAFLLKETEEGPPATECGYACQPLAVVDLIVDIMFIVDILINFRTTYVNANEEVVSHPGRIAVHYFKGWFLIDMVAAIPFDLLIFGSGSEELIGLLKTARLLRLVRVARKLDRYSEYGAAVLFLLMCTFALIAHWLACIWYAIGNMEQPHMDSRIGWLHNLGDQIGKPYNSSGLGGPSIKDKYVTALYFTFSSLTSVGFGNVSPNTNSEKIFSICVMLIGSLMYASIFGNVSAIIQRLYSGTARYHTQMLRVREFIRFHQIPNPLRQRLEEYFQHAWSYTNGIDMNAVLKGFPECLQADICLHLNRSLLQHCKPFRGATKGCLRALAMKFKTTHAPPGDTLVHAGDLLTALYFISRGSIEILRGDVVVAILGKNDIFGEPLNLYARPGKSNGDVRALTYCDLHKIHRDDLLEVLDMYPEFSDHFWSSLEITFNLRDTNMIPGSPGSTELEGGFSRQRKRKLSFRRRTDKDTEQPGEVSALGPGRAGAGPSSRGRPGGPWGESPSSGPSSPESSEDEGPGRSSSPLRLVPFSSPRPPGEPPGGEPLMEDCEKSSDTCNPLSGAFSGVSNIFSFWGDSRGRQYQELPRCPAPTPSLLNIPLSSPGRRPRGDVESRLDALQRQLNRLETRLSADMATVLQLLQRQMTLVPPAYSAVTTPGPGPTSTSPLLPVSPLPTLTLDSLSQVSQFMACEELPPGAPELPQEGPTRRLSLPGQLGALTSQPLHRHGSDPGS
row,SMILES,"hERG current change (%, negative = inhibition) at 1uM"
1,O=C(/C=C/c1c(F)cccc1Cl)NCc1ccco1,5.05%
2,COc1ccc(CNCC(O)(c2ccccc2)c2ccc(Cl)cc2)cc1 (stereo not drawn),-13.4%
3,CCO[C@H]1OC(C(N)=O)=C[C@@H](C)[C@@H]1CCCO,11.8%
4,CNC(=S)N(C)CCc1cc2c(c(OC)c1/C=C1/C(=O)NC(=O)N(C)C1=O)OCO2,14.2%
5,CCOC(=O)c1sc2cccc(F)c2c1N,-14.6%
6,COc1ccccc1NS(=O)(=O)c1ccc(NN=C2CCCCC2)c([N+](=O)[O-])c1,8.97%
7,O=C(Nc1c(F)c(F)c(F)c(F)c1F)NC1CCCCC1,-0.0266%
8,Cc1cc(C)nc(Nc2cccc3ccccc23)n1,13.1%
9,Cn1c(COc2ccccc2)nnc1SCC(=O)c1cccc([N+](=O)[O-])c1,2.32%
10,Cc1cccc(OCCCCCN2CCOCC2)c1C,11.4%
11,CCC(NC(=O)CSc1nnnn1C1CC1)c1ccc(Br)cc1 (stereo not drawn),-1.62%
12,Cc1cc2ccccn2c1C(=O)c1ccc(S(=O)(=O)N(C)C)cc1,8.68%
13,O=C(NCc1ccc(F)cc1)c1cc2n(n1)C(C(F)(F)F)CC(C1CC1)N2 (stereo not drawn),14.3%
14,CC(C)NS(=O)(=O)c1ccc(CCC(=O)NCc2ccc3c(c2)OCO3)cc1,6.97%
15,O=C(Nc1nnc(-c2ccccc2Cl)o1)c1ccc(S(=O)(=O)N2CCCCCC2)cc1,9.58%
16,CCOc1cc(/C=C\[N+](=O)[O-])ccc1OCC(=O)N1CCOCC1,-2.65%
17,CCN1CCN(c2cc(C)c3cc(NC(=O)c4ccncc4)ccc3n2)CC1,3.16%
18,COc1ccccc1CNc1n[nH]c(NCc2ccccc2OC)n1,1.8%
19,COc1cccc(-c2cc(C(=O)N3CCN(S(=O)(=O)c4ccccc4)CC3)[nH]n2)c1,-4.38%
20,Cc1ccc(CNC(=O)COC(=O)c2cnccn2)cc1,-7.53%
21,COc1ccccc1NC(=O)C1=C(C)Nc2nc3ccccc3n2C1c1cccs1 (stereo not drawn),-2.88%
22,COc1ccc(-c2cc(C(F)(F)F)nc(SCCC(=O)NCc3ccccc3)n2)cc1,-4.05%

row,SMILES,"hERG current change (%, negative = inhibition) at 1uM"
1,CCOC(=O)N1CCC(N2C(=O)c3ccc(C(=O)NCCC(C)C)cc3C2=O)CC1,3.52%
2,Cc1cc(-c2ccc(C(C)C)c(S(=O)(=O)Nc3ccccn3)c2)on1,25.3%
3,CC1CN(CC(=O)NCc2ccc(F)cc2)CC(C)O1 (stereo not drawn),5.99%
4,CN1CC(C(=O)c2ccccc2)C(c2ccccc2)C1 (stereo not drawn),8.3%
5,S=C(NCCNC(=S)Nc1ccccc1Cl)Nc1ccccc1Cl,4.26%
6,Cc1ccc(OCCCn2c(=O)sc3ccccc32)cc1,14.2%
7,Cc1[nH]c(=O)c(C#N)c(C)c1CCC(=O)Nc1cc(S(C)(=O)=O)ccc1Cl,11.9%
8,CC1(C)CC(NC(=O)COc2ccc(Cl)cc2Cl)CC(C)(C)N1,5.84%
9,O=C(Nc1nc(-c2ccc(F)c(F)c2)cs1)c1cc([N+](=O)[O-])ccc1N1CCOCC1,15.1%
10,CCn1c(Cc2cccs2)nnc1SCC(=O)NC1CC1,-1.4%
11,O=C(Cn1c2c(sc1=O)C1c3ccccc3OCC1CS2)Nc1ccc(Cl)cc1 (stereo not drawn),9.64%
12,O=C(Nc1cccc(Cl)c1)ON=C1c2ccccc2-c2ccccc21,-2.38%
13,COc1ccccc1-c1noc2ncnc(Nc3ccccc3C)c12,-10.1%
14,CC1CCN(c2ccc(C(=O)Nc3ccc4c(c3)OCO4)cc2[N+](=O)[O-])CC1,11%
15,O=C(CCCCCN1C(=O)c2ccccc2C1=O)NCc1ccco1,0.764%
16,Cc1nnc(NC(=O)CCNC(=O)c2ccccc2Cl)s1,4.88%
17,CC(=O)NCCc1nc2cc(NC(=O)c3cccc([N+](=O)[O-])c3)ccc2n1C,12.8%
18,COc1ccccc1-n1cc([C@@H]2C[C@H]3CN(c4ccccc4)C(=O)[C@]34CCCN24)cn1,-0.434%
19,O=C(COc1ccc(Cl)cc1Cl)N1CCNC1=O,-0.229%
20,O=c1cc(NS(=O)(=O)c2ccccc2)nc(SCc2c(Cl)cccc2Cl)[nH]1,15%
21,Cc1ccc(/C=C/c2nnc(-c3ccccc3)o2)cc1,10.2%
22,CC(=O)Nc1ccc(S(=O)(=O)N2CCN(CCCOc3cc(C)ccc3C)CC2)cc1,-19.5%

row,SMILES,"hERG current change (%, negative = inhibition) at 1uM"
1,COc1cccc(CNC(=O)CCN2C(=O)[C@@H]3Cc4ccccc4CN3C2=O)c1,20.2%
2,Cc1ccc(S(=O)(=O)N(C)c2ccc(C(=O)Nc3cccnc3)cc2)cc1,18.8%
3,C/C(CC(=O)Nc1ccc(Cl)c(Cl)c1)=N\NC(N)=S,13.5%
4,CCN(CC)S(=O)(=O)c1cccc(-c2nnc(SCc3ncc(-c4ccccc4)o3)n2C)c1,-26.7%
5,COc1ccc2c(c1)C1(C)CC(C)(C)N2C(=O)N1c1ccccc1 (stereo not drawn),8.74%
6,O=C(NCCSc1ccccc1)c1ccccc1F,11.3%
7,COC(=O)CCc1c(C)nn(-c2ccccc2)c1C,2.29%
8,NC(=O)CSc1nnc(C2CC2)n1-c1ccccc1,14.7%
9,CCC12C(=O)C(CC)(C(c3ccccc3)=C1c1ccccc1)[C@@H]1C(=O)N(c3ccccc3)C(=O)C12 (stereo partly drawn),7.84%
10,CC(Oc1ccccc1)C(=O)Nc1nnc(S(=O)(=O)N(C)c2ccccc2)s1 (stereo not drawn),8.63%
11,COc1ccc(S(=O)(=O)N2CCC(C(=O)N3CCc4ccccc4C3)CC2)cc1,0.0728%
12,CC1(C)CC2CC(C)(CN2CC(O)c2ccccc2)C1.O=C(O)C(=O)O (stereo not drawn),-28.2%
13,CC(C)c1ccc(S(=O)(=O)N2CCN(C(C)C(=O)Nc3ccccc3-c3ccccc3)CC2)cc1 (stereo not drawn),10.4%
14,O=[N+]([O-])c1ccc(-c2nnc([S-])n2-c2ccccc2)cc1.[Na+],18.4%
15,COc1cccc(N2C(=O)CC(c3c[nH]c4ccccc34)C2=O)c1 (stereo not drawn),17.4%
16,CN(C)CCNc1nc(S(=O)(=O)c2ccccc2)c(Cl)s1,-7.51%
17,CCCOCn1cc(F)c(=O)[nH]c1=O,4.83%
18,COc1ccc(CN(C2CCCC2)S(=O)(=O)c2ccc(-n3cnnn3)cc2)cc1,0.683%
19,O=C(CCN1C(=O)[C@@H]2Cc3ccccc3CN2C1=O)NCc1ccc(Cl)cc1,-19.1%
20,O=C(NCc1ccc(Cl)cc1)c1cc2c(nc3sccn32)s1,8.37%
21,Cc1ccc(-c2nn(-c3ccccc3)cc2C(=O)NCC2CCCO2)cc1 (stereo not drawn),1.49%
22,O=C(CSc1nnc(COc2cccc3ccccc23)o1)N1c2ccccc2CCc2ccccc21,19.4%

row,SMILES,"hERG current change (%, negative = inhibition) at 1uM"
1,CC(Oc1ccc(Cl)cc1)C(=O)Nc1sccc1C(N)=O (stereo not drawn),6.57%
2,CC(C)(C)C(=O)c1cn(CC(=O)NCc2ccco2)c2ccccc12,13.3%
3,O=C(NCc1nc2ccccc2[nH]1)c1cccc(S(=O)(=O)N2CCCCC2)c1,2.53%
4,CN1CCN(S(=O)(=O)c2cccc(S(=O)(=O)c3cccc(S(=O)(=O)N4CCN(C)CC4)c3)c2)CC1,2.64%
5,Cc1cc(NC(=O)CSc2ccc3nnc(CCNC(=O)c4ccccc4)n3n2)no1,15.4%
6,Cc1ccc(S(=O)(=O)NCCC(=O)NC2CCCC2)cc1,1.28%
7,CCCC1=[N+](CC(=O)c2ccc(Br)cc2)CCn2cccc21.[Br-],14.3%
8,COc1cc(-c2nc3n(c(=O)c2C#N)CCS3)cc(OC)c1OC,10.6%
9,C=C1CSc2nc3ccccc3c(=O)n21,10.8%
10,Cc1ccc(NC(=O)CO/N=C(\N)c2nonc2N)cc1C,-1.41%
11,C/C(=N\O)c1ccn(S(=O)(=O)c2ccc(Cl)cc2)c1,14.2%
12,CNC(=O)NC(=O)CSc1ccc(NC(C)=O)cc1,7.97%
13,CC(=O)c1ccc(S(=O)(=O)NCC(=O)N2CCN(C/C=C/c3ccccc3)CC2)cc1,-11.1%
14,Cc1ccc(-n2nc(C(=O)O)cc2-c2ccc(Cl)cc2)cc1,8.61%
15,COc1cc(/C=c2\s/c(=C(/C#N)C(=O)N3CCCC3)n(-c3ccccc3)c2=O)ccc1O,-5.84%
16,Cc1ccc(-n2c(-c3cccc(C)c3)n[nH]c2=S)cc1,12.2%
17,COc1ccc2cc(/C=N/NC(=O)c3ccc(CN(c4cccc(Cl)c4Cl)S(C)(=O)=O)cc3)c(Cl)nc2c1,10.8%
18,COc1ccc(S(=O)(=O)N(CC(=O)NCC2CCCO2)c2ccc(F)cc2)cc1OC (stereo not drawn),11.9%
19,O=C1N(CN2CCOCC2)c2ccccc2C12OCC(CCl)O2 (stereo not drawn),-12.7%
20,Cc1ccc(Cl)cc1NC(=O)c1cc(S(=O)(=O)N2CCOCC2)cn1C,6.17%
21,Cc1nc2c(sc3nc4c(cc32)COC(C)(C)C4)c(=O)n1CC(=O)NCc1ccco1,3.21%

# From publication PMC4336329 (PLoS ONE, 2015)
